Results reported in the supplement of paper PMC10338343.
± gives the standard deviation. The full ranking holds about 3,000 sequences; the median of “pre-steady-state target cleavage rate” is about 0.0079, and the highest 2% start at about 0.2. The list shows a part of the results, in another mix than the full data.

Each sequence was assayed on MILI (PIWIL2) piRISC loaded with piRNA #2 (26 nt) (assay: pre-steady-state target cleavage rate (min^-1); MIWI and MILI are mouse PIWI proteins and EfPiwi is from a freshwater sponge; tags in brackets are library labels; higher = faster piRNA-guided slicing of the target). Conditions: guide: piRNA #2 5'p-UUAGGUAACCCAGUAGAUCCAGAGGA; auxiliary factor: 500 nM mouse GTSF1.
Outline: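 The method was Cleave-'n-Seq, in which uncleaved targets from a transcribed, DNA-blocked target RNA library were sequenced after exposure to active affinity-purified piRISC carrying one synthetic guide, with or without GTSF1 partner protein. Reactions contained 0.1 nM library, 1 nM piRISC and, where present, 500 nM GTSF1 in HEPES–potassium acetate buffer at 33 °C for 0–8 or 0–960 min. Reads were normalised to depth and to weakly complementary targets, three trials were pooled, and k3 was capped at 0.0001 min^-1. The pre-steady-state cleavage rate came from a burst-and-steady-state fit.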

Question: For CUUAAGCUCAGGAUCUACUGGGUUACCAAA, which “pre-steady-state target cleavage rate” value is on record?
Answer: 0.0403 ± 0.012

Question: CUUAACCUCUCGAUCUACUGGGUUACCAAA was tested. Which “pre-steady-state target cleavage rate” value did it give?
Answer: 0.0719 ± 0.016

Question: How did the “pre-steady-state target cleavage rate” value turn out when CUUAAGGAGUGGAUCCACUGGGUUACCUAA was run?
Answer: 0.0426 ± 0.013

Question: CUUAAGCUCUGGAUCUACUGGGAAUCCUAA was tested. Which “pre-steady-state target cleavage rate” value did it give?
Answer: 0.00557 ± 0.004

Question: Which “pre-steady-state target cleavage rate” value does the source give for CUUAAGCUCUGGAUCUACUGGGUUACUAA here?
Answer: 0.139 ± 0.027

Question: Which “pre-steady-state target cleavage rate” value does the source give for CUUAACCUCUGGAACUACUCGGUUACCUAA here?
Answer: 0.00428 ± 0.0028

Question: For CUUAUCCUCUGGAUCUACUGGGUUAGCCUAA, which “pre-steady-state target cleavage rate” value is on record?
Answer: 0.151 ± 0.029

Question: For CUUAACCUCUGGAUCUACAGGGUUACCUUA, which “pre-steady-state target cleavage rate” value is on record?
Answer: 0.084 ± 0.019

Question: For CUUAAGGUCUGCAUGUACUGGGUUACCUAA, which “pre-steady-state target cleavage rate” value is on record?
Answer: 0.0391 ± 0.018

Question: With “CUUAUCCUCUGGAUCUACUGGGUUACCUAU [g2:g26:cont:t1U]” as the sequence, how does the “pre-steady-state target cleavage rate” value read?
Answer: 0.127 ± 0.023

Question: CUUAAGGAGUGGAUCUACUGGGUUACCAUA was tested. Which “pre-steady-state target cleavage rate” value did it give?
Answer: 0.0171 ± 0.0071

Question: CUUAAGGUGUGGAACUACUGGGUUACCUAA was tested. Which “pre-steady-state target cleavage rate” value did it give?
Answer: 0.0113 ± 0.01

Question: How did the “pre-steady-state target cleavage rate” value turn out when CUUAAGGAGAGCAUCUACUGGGUAACCUAA was run?
Answer: 0.00752 ± 0.0046

Question: Which “pre-steady-state target cleavage rate” value does the source give for CUUAAGGAGUGGAUCUACUGGGUUUACCUAA here?
Answer: 0.0223 ± 0.0077

Question: For CUUAUCCUCUGGAUCUACUGGGUUACCUGAA, which “pre-steady-state target cleavage rate” value is on record?
Answer: 0.384 ± 0.17

Question: Which “pre-steady-state target cleavage rate” value does the source give for CUUAAGGUCUGGAUGUACUGGGUUACGUAA here?
Answer: 0.0111 ± 0.01

Question: With CUUAAGGAGUGGAUCUACUGGGUCACCUAA as the sequence, how does the “pre-steady-state target cleavage rate” value read?
Answer: 0.00943 ± 0.0049

Question: CUUAACGCUCUGGAUCUACUGGGUUACCUAA was tested. Which “pre-steady-state target cleavage rate” value did it give?
Answer: 0.0744 ± 0.029

Question: Which “pre-steady-state target cleavage rate” value does the source give for CUUAUCCUCUGGAUCUACUGGGAUACCUUA here?
Answer: 0.129 ± 0.041

Question: Which “pre-steady-state target cleavage rate” value does the source give for CUUAUCGCUCUGGAUCUACUGGGUUACCUAA here?
Answer: 0.0427 ± 0.016

Question: CUUAUCCUCUGGAUCUACUGCGUAACCUAA was tested. Which “pre-steady-state target cleavage rate” value did it give?
Answer: 0.0113 ± 0.0053

Question: For CUUAUCCUCUGCAUCAACUGGGUUACCUAA, which “pre-steady-state target cleavage rate” value is on record?
Answer: 0.0996 ± 0.024

Question: CUUAUCCUGUGGAUCUACUGGGUAACCUAA was tested. Which “pre-steady-state target cleavage rate” value did it give?
Answer: 0.0153 ± 0.0062

Question: CUUAAGGAGUGGAUCUACAGCGUUACCUAA was tested. Which “pre-steady-state target cleavage rate” value did it give?
Answer: 0.0072 ± 0.0036

Question: How did the “pre-steady-state target cleavage rate” value turn out when CUUAAGGAGUGGAUCUAGCUGGGUUACCUAA was run?
Answer: < 0.0001

Question: For CUUAUCCUCUGGAUCAACUGGGUAACCUAA, which “pre-steady-state target cleavage rate” value is on record?
Answer: 0.0185 ± 0.0057

Question: For CUUAAGCAGAGGAUCUACUGGGUUACCUAA, which “pre-steady-state target cleavage rate” value is on record?
Answer: 0.0164 ± 0.0047

Question: How did the “pre-steady-state target cleavage rate” value turn out when CUUAAGGACUGCAUCUACUGGGUUACCUUA was run?
Answer: 0.0139 ± 0.011

Question: How did the “pre-steady-state target cleavage rate” value turn out when CUUAAGCUCUGGAUCUACUGGGAUUCCUAA was run?
Answer: 0.007 ± 0.0043

Question: Which “pre-steady-state target cleavage rate” value does the source give for CUUAAGGUCUCCAUCUACUGGGUUACCUAA here?
Answer: 0.00394 ± 0.0037

Question: For CUUAAGGAGACCUUCUACUGUGGUUACCUAA, which “pre-steady-state target cleavage rate” value is on record?
Answer: < 0.0001

Question: For CUUAAGGAGUGGAUCUACUGGGUUACCUGA, which “pre-steady-state target cleavage rate” value is on record?
Answer: 0.0222 ± 0.013

Question: For CUUAAGGAGUUGGAUCUACUGGGUUACCUAA, which “pre-steady-state target cleavage rate” value is on record?
Answer: 0.0386 ± 0.012

Question: Which “pre-steady-state target cleavage rate” value does the source give for CUUAUCCUCUGGAAUCUACUGGGUUACCUAA here?
Answer: 0.156 ± 0.035

Question: How did the “pre-steady-state target cleavage rate” value turn out when CUUAUCCUCUGGAUCUACCGGGUUACCUAA was run?
Answer: 0.064 ± 0.02

Question: “CUUAAGCUCUGGAUCUACUGGGUUAGGAUA [g6:g24:cont:t1A]” was tested. Which “pre-steady-state target cleavage rate” value did it give?
Answer: 0.00619 ± 0.0041

Question: With CUUAACCUCUGGAUCUUCAGGGUUACCUAA as the sequence, how does the “pre-steady-state target cleavage rate” value read?
Answer: 0.0729 ± 0.013

Question: For CUUAACCUCUGGAUCUACUGGGUCACCUAA, which “pre-steady-state target cleavage rate” value is on record?
Answer: 0.0651 ± 0.021

Question: How did the “pre-steady-state target cleavage rate” value turn out when CUUAAGCUCUGGAACUACUGGGUUAGCUAA was run?
Answer: 0.0581 ± 0.021

Question: CUUAAGGUCUGGAUCUACUGGGUAACCUUA was tested. Which “pre-steady-state target cleavage rate” value did it give?
Answer: 0.00985 ± 0.0043

Question: CUUAAGCUCUGGAUCUAGUGGGUAACCUAA was tested. Which “pre-steady-state target cleavage rate” value did it give?
Answer: 0.00908 ± 0.0032

Question: With CUUAAGGACUGCAUCUACUGGGUUACCUAA as the sequence, how does the “pre-steady-state target cleavage rate” value read?
Answer: 0.0213 ± 0.015

Question: With CUUAAGGAGACCUACUACUGGGUUACACUAA as the sequence, how does the “pre-steady-state target cleavage rate” value read?
Answer: < 0.0001

Question: CUUAAGGAGUCGAUCUACUGGGUUACCUAA was tested. Which “pre-steady-state target cleavage rate” value did it give?
Answer: 0.0049 ± 0.0041

Question: CUUAUCCUCUGCAUCUACUGGGUUACCUUA was tested. Which “pre-steady-state target cleavage rate” value did it give?
Answer: 0.466 ± 0.13

Question: With CUUAACCUGUGGAUCUACUGGGUAACCUAA as the sequence, how does the “pre-steady-state target cleavage rate” value read?
Answer: 0.0162 ± 0.0075

Question: Which “pre-steady-state target cleavage rate” value does the source give for CUUAAGCUCUGGAUCUACUGGCUAACCUAA here?
Answer: < 0.0001

Question: How did the “pre-steady-state target cleavage rate” value turn out when CUUAUCCUGACGAUCUACUGGGUUACCUAA was run?
Answer: 0.056 ± 0.019

Question: CUUAUCCACUGCAUCUACUGGGUUACCUAA was tested. Which “pre-steady-state target cleavage rate” value did it give?
Answer: 0.0992 ± 0.015

Question: With CUUAAGGAGACCUAGAUGACGGUGUACCUAA as the sequence, how does the “pre-steady-state target cleavage rate” value read?
Answer: < 0.0001

Question: For CUUAUCCUCUGCAACUACUGGGUUACCUAA, which “pre-steady-state target cleavage rate” value is on record?
Answer: 0.093 ± 0.015

Question: With CUUAAGGUCUGGUUCUACUGGGUUUCCUAA as the sequence, how does the “pre-steady-state target cleavage rate” value read?
Answer: 0.016 ± 0.01

Question: With “CUUAAGCUCUGGAUCUACUGGGUUACCUAA [g2:g24:cont:t1A]” as the sequence, how does the “pre-steady-state target cleavage rate” value read?
Answer: 0.0702 ± 0.018

Question: How did the “pre-steady-state target cleavage rate” value turn out when CUUAUCCUGUGGAUCUACUGCGUUACCUAA was run?
Answer: 0.00803 ± 0.0045

Question: For CUUAAGGUCUGGAUCUACAGCGUUACCUAA, which “pre-steady-state target cleavage rate” value is on record?
Answer: 0.0157 ± 0.0035

Question: How did the “pre-steady-state target cleavage rate” value turn out when CUUAACCACUGGAUCUUCUGGGUUACCUAA was run?
Answer: 0.0833 ± 0.016

Question: With CUUAUCCUCUGGAACUUCUGGGUUACCUAA as the sequence, how does the “pre-steady-state target cleavage rate” value read?
Answer: 0.117 ± 0.031

Question: For CUUAACCUCUUGAUCUACUGGGUUACCUAA, which “pre-steady-state target cleavage rate” value is on record?
Answer: 0.162 ± 0.026

Question: How did the “pre-steady-state target cleavage rate” value turn out when CUUAACCACUGGAACUACUGGGUUACCUAA was run?
Answer: 0.0782 ± 0.019

Question: Which “pre-steady-state target cleavage rate” value does the source give for “CUUAACCUCUGGAUCUACUGGGUUACCUAG [g2:g25:cont:t1G]” here?
Answer: 0.119 ± 0.032

Question: CUUAACCUCUGGAUGUACUGGGUUACGUAA was tested. Which “pre-steady-state target cleavage rate” value did it give?
Answer: 0.0343 ± 0.014

Question: For CUUAACCUCUGGCUCUACUGGGUUACCUAA, which “pre-steady-state target cleavage rate” value is on record?
Answer: 0.8 ± 0.2

Question: How did the “pre-steady-state target cleavage rate” value turn out when CUUAUUCUCUGGAUCUACUGGGUUACCUAA was run?
Answer: 0.0752 ± 0.011

Question: For CUUAAGGUCUGGAUCUACUGGGAUUCCUAA, which “pre-steady-state target cleavage rate” value is on record?
Answer: 0.0054 ± 0.004

Question: Which “pre-steady-state target cleavage rate” value does the source give for CUUAAGCUCUGGAUCUUCUGGGUUAGCUAA here?
Answer: 0.0297 ± 0.011

Question: How did the “pre-steady-state target cleavage rate” value turn out when CUUAAGCUCUGGAUCACUGGGUUACCUAA was run?
Answer: 0.00491 ± 0.004

Question: CUUAUCCUGUGGAUCUACUGGGUUAGCUAA was tested. Which “pre-steady-state target cleavage rate” value did it give?
Answer: 0.0064 ± 0.0042

Question: CUUAAGGACUGGAUCUUCUGGGUUACCUUA was tested. Which “pre-steady-state target cleavage rate” value did it give?
Answer: 0.0144 ± 0.012

Question: Which “pre-steady-state target cleavage rate” value does the source give for CUUAAGCUCGGAUCUACUGGGUUACCUAA here?
Answer: 0.053 ± 0.022

Question: How did the “pre-steady-state target cleavage rate” value turn out when CUUAAGCUCUGGAUGUUCUGGGUUACCUAA was run?
Answer: 0.052 ± 0.014

Question: CUUAAGGUCUGGAUUCUACUGGGUUACCUAA was tested. Which “pre-steady-state target cleavage rate” value did it give?
Answer: 0.0964 ± 0.026

Question: With CUUAAGGAGACCUAGUACUGGGUUACCGAA as the sequence, how does the “pre-steady-state target cleavage rate” value read?
Answer: < 0.0001
